Measurements taken from the supplement of paper PMC4166925.
± gives the standard deviation of the averaged measurements. Whole data set: some 33,000 sequences, median “E-score (dimensionless, -0.5 to 0.5)” near -0.049, cut for the highest 2% near 0.37. Some of the results follow.

Test system: T1, PmTbr T-box DNA-binding domain (GST fusion)
T1 sequence: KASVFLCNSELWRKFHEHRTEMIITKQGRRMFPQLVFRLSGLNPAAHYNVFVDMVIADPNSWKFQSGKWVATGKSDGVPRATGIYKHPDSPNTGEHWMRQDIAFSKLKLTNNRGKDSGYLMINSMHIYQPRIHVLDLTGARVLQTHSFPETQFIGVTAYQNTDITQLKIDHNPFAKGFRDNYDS
Test: PBM E-score of 8-mer (E-score (dimensionless, -0.5 to 0.5)); Tbr is Tbrain of the sea star Patiria miniata (Pm) or the sea urchin Strongylocentrotus purpuratus (Sp); higher = stronger binding preference; most listed sequences are background and not binding sites
Conditions: the construct has about 5 more residues each side
Description: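 Universal protein-binding microarray (Agilent AMADID 016060, 60-bp probes with a 35-bp variable region) incubated with 200 nM GST-fused Patiria miniata Tbr T-box DNA-binding domain (residues 272-466) in PBS pH 7.5. Scored for every ungapped 8-mer (given with its reverse complement) by the Universal PBM Analysis Suite as E-score (modified Wilcoxon-Mann-Whitney enrichment, range -0.5 to 0.5; >0.45 counts as bound) and Z-score of median probe intensity. Two replicate arrays (datasets 1 and 2).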
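Further: 200 nM protein in PBS on universal arrays averaged over duplicate arrays.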

Sequence	PBM E-score of 8-mer
GATTCAGC	-0.0931 ± 0.032
TCCTATAA	-0.189 ± 0.068
CAATAATG	-0.126 ± 0.074
GAAGACAA	0.086 ± 0.051
TGAAGAAA	-0.0329 ± 0.025
GCCTAGAA	-0.0839 ± 0.072
CTATCCGA	-0.271 ± 0.073
CCACATCC	-0.102 ± 0.032
CAGACTGG	-0.346 ± 0.062
CGTCATGA	-0.156 ± 0.011
ATACCGAG	-0.177 ± 0.04
CGTGAACA	0.321 ± 0.021
AATTAGGC	-0.0602 ± 0.0089
ATATGTGC	0.2311 ± 0.0006
CTCATTTC	-0.224 ± 0.033
ACTGGTAC	-0.13 ± 0.064
ATTTGCCC	-0.1 ± 0.039
GGGTATTA	-0.139 ± 0.091
ACGAGGTC	-0.113 ± 0.027
ACCCGAAA	0.153 ± 0.035
GCGGGTAA	0.118 ± 0.029
AGCATTAT	0.0593 ± 0.03
CATAGAGG	-0.0262 ± 0.0062
GGCCGTAC	-0.128 ± 0.052
CAGTCATC	-0.128 ± 0.013

Sequence	PBM E-score of 8-mer
CCACCTGC	0.299 ± 0.02
CGTACCGA	-0.172 ± 0.048
CCTTTCTC	-0.0361 ± 0.0053
CTGCATCC	-0.296 ± 0.01
ACAAACAA	-0.0529 ± 0.023
ATATATTC	-0.227 ± 0.1
CCTAATTA	-0.0641 ± 0.04
CCCCCATC	-0.0234 ± 0.039
AATCCGGC	-0.0482 ± 0.032
GTCCTTAA	-0.25 ± 0.075
TAGGTCAA	-0.24 ± 0.053
CGTAATAG	-0.149 ± 0.052
ATAGTCTA	-0.132 ± 0.032
TCCGTCCA	-0.0963 ± 0.047
CAAGTTTA	0.161 ± 0.084
GCGGTTAC	-0.0207 ± 0.021
GATCGAAC	-0.0822 ± 0.031
CCCAGTGC	-0.102 ± 0.043
GTTTTGCA	0.06 ± 0.033
AGTTTCTG	0.0153 ± 0.0032
GAGCTTCA	-0.137 ± 0.0098
AGCTCTCA	0.0682 ± 0.023
CGAACGAA	-0.0608 ± 0.029
CTAAGCAA	-0.00553 ± 0.0064
GTTTAGTA	-0.296 ± 0.038

Sequence	PBM E-score of 8-mer
AAGCTCTG	-0.103 ± 0.041
ACGAATTG	0.0628 ± 0.039
TAACAGCA	0.0236 ± 0.041
GCTGAGGA	-0.00513 ± 0.026
ACGGTTAG	0.0117 ± 0.068
AATCCGAG	-0.00826 ± 0.0078
AGGAATGC	-0.169 ± 0.021
AACAGCAC	0.2 ± 0.036
CTTTGACC	-0.263 ± 0.033
GGCCTTGA	-0.238 ± 0.0033
TCTTTCAA	-0.299 ± 0.037
GCATCGGA	-0.132 ± 0.0095
CGGATTCA	-0.111 ± 0.0065
ACGTACCA	-0.142 ± 0.042
AATCTCTC	-0.0609 ± 0.011
ACCACTCG	0.12 ± 0.008
CCCTCCTC	-0.0552 ± 0.0098
GTAGTGGA	-0.185 ± 0.077
AGTCTTTG	-0.141 ± 0.0091
AAATAAGT	0.0179 ± 0.086
ATAGCAGC	0.074 ± 0.021
ACCCTAGC	-0.0107 ± 0.082
ATACATAC	-0.0984 ± 0.025
ATGCACGA	-0.134 ± 0.0081
CACAAACC	-0.224 ± 0.032

Sequence	PBM E-score of 8-mer
AACTACAT	0.049 ± 0.06
ACTTCTAT	-0.0949 ± 0.087
CCTCCAGG	-0.169 ± 0.059
CTCAGGAC	-0.2433 ± 0.0019
CATCTCTA	-0.175 ± 0.028
AAGAACCG	-0.0764 ± 0.1
ACATTCCT	-0.213 ± 0.043
CCCCCAAG	0.0726 ± 0.017
AGCCGAAC	-0.0977 ± 0.032
CCAGCACG	0.145 ± 0.06
GACCGCAA	-0.161 ± 0.0043
GCGGTTCA	0.139 ± 0.0094
GCAACCTA	0.164 ± 0.079
CGCCGATC	-0.0804 ± 0.0053
TGGGACAA	-0.177 ± 0.023
GCCAAAAA	0.00317 ± 0.045
ATAAACAC	0.282 ± 0.015
ACGAACAG	-0.00353 ± 0.037
GCACCGCC	0.199 ± 0.0052
ACGATCTG	0.189 ± 0.015
AGCAGGGC	-0.334 ± 0.019
CGCCCTGA	0.0727 ± 0.07
CTGGTATC	-0.133 ± 0.075
GCATGAAA	-0.0616 ± 0.032
GATCGGTA	-0.239 ± 0.081

Sequence	PBM E-score of 8-mer
AAGACATT	-0.203 ± 0.097
ACATGGAG	-0.0937 ± 0.003
GAGCTCCA	-0.196 ± 0.058
ACAAGTGT	0.391 ± 0.0052
ATAATTAA	-0.0595 ± 0.049
AGCATCAC	0.156 ± 0.031
GAGTGGCA	0.162 ± 0.039
AGTCTCAA	0.112 ± 0.006
ACTACCTG	0.068 ± 0.035
GTACACAC	0.1571 ± 0.0012
ACAAGGCA	-0.0748 ± 0.072
CAGCCACG	0.163 ± 0.02
AAACTCTT	-0.11 ± 0.032
GACAAGGA	-0.0231 ± 0.00054
CTAGTGCC	0.0785 ± 0.032
GTGGCGGA	0.12 ± 0.065
CCTTGGAA	-0.127 ± 0.028
AGGATACA	-0.03 ± 0.075
AATCCGTC	-0.0859 ± 0.021
CGAAGAAG	0.0353 ± 0.021
GAACGGGA	-0.0661 ± 0.028
ACCCAAGC	-0.1565 ± 0.00039
AGAAATCC	-0.0401 ± 0.039
AGGGATTA	-0.213 ± 0.073
CCTGAGCA	-0.037 ± 0.096

Sequence	PBM E-score of 8-mer
ACTACCAC	0.0023 ± 0.012
ACCGTCGA	0.11 ± 0.014
ATTGAGAA	-0.00564 ± 0.042
GGCGTAAA	0.19 ± 0.025
ACCTGTCG	0.355 ± 0.035
CGTCGAAG	0.0448 ± 0.016
AGTGGTAA	0.121 ± 0.067
CGTCCATC	-0.237 ± 0.022
CGAAGATC	-0.07 ± 0.0097
TGACTAAA	0.066 ± 0.046
CTTGATGA	0.0332 ± 0.025
CTAAATAC	0.0475 ± 0.013
TGGGCCCA	-0.187 ± 0.05
TAACCAAA	-0.186 ± 0.017
AAAAGGCT	-0.0914 ± 0.05
ACTAGGTA	-0.23 ± 0.039
CCGACATA	-0.03923 ± 2.8e-05
AACAAGTT	0.227 ± 0.099
AGTGCAGA	0.0714 ± 0.017
AAAACCGC	0.0182 ± 0.021
AGTACAGC	-0.172 ± 0.062
ACTCCTCA	-0.0441 ± 0.00072
AGGTCGTA	-0.0768 ± 0.013
AAACTCCA	-0.112 ± 0.031
ATACAATC	-0.298 ± 0.031

Sequence	PBM E-score of 8-mer
ACGACTAG	0.0749 ± 0.071
ACGGGGCG	0.101 ± 0.052
CACGACGC	0.0253 ± 0.014
CATGGCGC	0.133 ± 0.067
CGCCCGCC	0.0535 ± 0.013
CGCATCCG	-0.017 ± 0.013
AGATTTGC	0.097 ± 0.045
ATCCATTA	-0.114 ± 0.02
AACGCATG	-0.00137 ± 0.057
ATACATCG	-0.0762 ± 0.05
ATCGCCAA	0.0607 ± 0.039
ACCATGCG	0.124 ± 0.019
GGGTCGCA	0.171 ± 0.019
ATGTCCTC	-0.16273 ± 0.00013
CATTGGTA	-0.0019 ± 0.016
CGCCTATC	0.196 ± 0.013
GCTCTTGA	-0.141 ± 0.043
CGTGTGGC	0.154 ± 0.054
AGTCATGG	-0.153 ± 0.083
ACTACCAG	-0.186 ± 0.075
AATAAAGT	-0.0105 ± 0.09
AGAGAATG	-0.177 ± 0.036
